The list shows a part of the results.

Sequences and labels used below:
T1: UNK ZnF1-3 (human, UniProt Q9C0B0 31-174)
T1 sequence: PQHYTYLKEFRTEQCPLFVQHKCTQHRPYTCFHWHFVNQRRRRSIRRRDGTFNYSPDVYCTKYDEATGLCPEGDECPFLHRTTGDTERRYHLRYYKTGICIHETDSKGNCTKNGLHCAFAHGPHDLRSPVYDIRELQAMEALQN

B1: 156911750_156912570_4337_CDS_ENSG00000132694_ENST00000368194|human|control|control (ssRNA)
RNA: GGGAGUUCUACAGUCCGACGAUCCCGCACGGCCUCUUCUAAGAGCUCCAUCCAUGUGUUCUUGUCUGAUGACGUCAAUGCAACCAGCUCAUAGAUCUGGGGUGGGCCCAGCUUGGAGGUGCAGAUGAUGAAGAAGGCCCGUUUCAACAGAGGAUUGAGCAUCA
B2: chr17:64801638:64801639:+_ENSG00000154229_ENST00000413366|hu_mus|hu_hu_hu_mus_False|68_88 (ssRNA)
RNA: GGGAGUUCUACAGUCCGACGAUCUAUAUAUAUAUAUACAUAUGUACACAUAUGUAGUAAAACCCUAAUCUAUCACGUAAAGUAGCCAUUCAUUUUUAAAAUUACAUCUACAUUAAAAAAUUAAUAUAUCUGAUAGAGUGCCAGCAACAGAGGAUUGAGCAUCA
B3: chr22:19452774:19452775:-_ENSG00000070010_ENST00000399523|hu_hu|hu_hu_hu_mus_False|48_58 (ssRNA)
RNA: GGGAGUUCUACAGUCCGACGAUCCUUCUCAUUGUAGUUGAUAGCAAUCACAUCUCCAGUCGUCAGACAGGCGAAGUUCCUAAGUGCGUUUUCUAAUACCGCUUUAGGGUUGGUAAUAUCCAGGAAGUCUGGGCUCUGAGGCUGCAACAGAGGAUUGAGCAUCA
B4: chr7:135612270:135612271:-_ENSG00000105887_ENST00000393085|hu_mus|hu_hu_hu_mus_False|48_88 (ssRNA)
RNA: GGGAGUUCUACAGUCCGACGAUCGUUUUUUUCUGAGAUGUUAAAUAUUCAGUGGAGGGAAAACAAAACUUAACCUUUUAUUAAUGCAUGUAGUACCAAAAGCAGACAUUUUAGCUUCAUUUAUUCAAAAAUAUUAACAUUAAGCAACAGAGGAUUGAGCAUCA
B5: chr5:132412388:132412389:+_ENSG00000170606_ENST00000304858|hu_hu|motif|central (ssRNA)
RNA: GGGAGUUCUACAGUCCGACGAUCUUUGGACUUAAUGUCUAGCUUGUAUUUCUUCCCAAAUUCUUCACAGAAGUGAUUUACGGACACUUCAUCAAAUUUUCUACCUCCCAAUGUCGUGUCAAAUGCAGUGGCCAGAACUUUCAGCAACAGAGGAUUGAGCAUCA
B6: chr19:16212804:16212805:+_ENSG00000167460_ENST00000300933|hu_mus|hu_hu_hu_mus_False|18_18 (ssRNA)
RNA: GGGAGUUCUACAGUCCGACGAUCAACAAUUCUGGAGUGAAGGAAAGAUGUAACAUGGAACAGCAUUAAAGCUCAGUCAGAAGGCACAUGGGCAACAAUGAUCACCCCAGCAUUCUCCUACGUUGACCUUAAAGACAAUCUGUUCAACAGAGGAUUGAGCAUCA
B7: chr8:38067834:38067835:+_ENSG00000156735_ENST00000287322|hu_mus|FALSE|FALSE (ssRNA)
RNA: GGGAGUUCUACAGUCCGACGAUCCUUUGUCAGCAUUUCUUCCAGAAGCCAAUACGCUUUGUCUGUCUUUUUUCCUACAAACUCUUCUACUUCUUGCUCAAGAAACUGCACCUUCUCCAGCACAUGUAUGAUCUUUUUAAUACUCAACAGAGGAUUGAGCAUCA
B8: chr2:9570881:9570882:+_ENSG00000119203_ENST00000238112|hu_mus|hu_hu_hu_mus_False|88_98 (ssRNA)
RNA: GGGAGUUCUACAGUCCGACGAUCACUUGUCUUCUGAAGAAACCAGGGCAGAGCUCCACAGUGAUCCAAAUGGAAAUGACUGAUCAACAGAAGGUCGAUCUCAGCUGGGUCGAUAAGGUCAAUGUAAGGAAGGGCAUCCAUUCCCAACAGAGGAUUGAGCAUCA
B9: chr3:10015032:10015033:+_ENSMUSG00000027533_ENSMUST00000029046|mus_mus|mus_mus_mus_hu_True|1_18 (ssRNA)
RNA: GGGAGUUCUACAGUCCGACGAUCGUUUUUACCAUCACAAGUGAUGAUACAAUCUGGCUUGGCCAUUGCGCCCAUUUUUCGCAAAGCUAUUCCCACUCCUAGCUCCUUCAUGUAUUCCUCAAAGCCGUUGCUGUCCAUCAGGCGCAACAGAGGAUUGAGCAUCA
B10: chr3:103732867:103732868:+_ENSMUSG00000044098_ENSMUST00000106806|mus_mus|motif|central (ssRNA)
RNA: GGGAGUUCUACAGUCCGACGAUCAAAAUUAAAAGCAAAGUAGUCCAAGAAGUCUGGGAGAUAAGCGGCCGCUCCAUGCACGGUUGCGGACGCAUAGUACGCAGCGUUUUUCUCAUUUUCACUGAAUGUCAAAGCAAGAAACUCCAACAGAGGAUUGAGCAUCA
B11: chr11:119660697:119660698:+_ENSMUSG00000025583_ENSMUST00000147781|mus_hu|FALSE|FALSE (ssRNA)
RNA: GGGAGUUCUACAGUCCGACGAUCGCUGACGGGAGUGCAGUUAUACGACCUCAUAAUCCUUUCCGCCAAUAAAAAAUUUCGAAACAGACUAGCCACCAGCAAGUCCUGUCUGAAGAGCUUUUGGAAGAGAUCCCGGGGGAGCACCAACAGAGGAUUGAGCAUCA
B12: chrX:98862621:98862622:+_ENSMUSG00000034160_ENSMUST00000044475|mus_mus|FALSE|FALSE (ssRNA)
RNA: GGGAGUUCUACAGUCCGACGAUCCUGCAUCUCCUUUAGAGUGUUUCCCAUAUUGGAAUAAGCAUCAGCAAAUGUAGGACUAAUUCGUAUGGCUUCUUUAUAGUGCAUCAGUGCUUCCUGCAGCUUGCCCUGCUGUUGCAGUACCAACAGAGGAUUGAGCAUCA
B13: 176539478_176539598_3164_CDS_ENSMUSG00000028354_ENSMUST00000030039|mouse|control|control (ssRNA)
RNA: GGGAGUUCUACAGUCCGACGAUCGGGAGGAGGUAUUCCCACUCCAGGAAGAGGAGGAGGAGGGGGUAUUCCCACUCCAGGAAGAGGAGGAGGAGGGGGUAUGCCCACUCCAGGAAGAGGAGGAGGAGGGGGUAUGCCCACUCCCAACAGAGGAUUGAGCAUCA
B14: chr7:54168817:54168818:-_ENSMUSG00000014402_ENSMUST00000014546|mus_mus|motif|central (ssRNA)
RNA: GGGAGUUCUACAGUCCGACGAUCGUUUGAGAUCUUUGUACAUAGCGAUGACAUUGACAGUUUGACGGACGGUUAGAUCUCGGUAUUUGUACUUGGACAUCAUCUUCUUCAGCUGACUCUCGGACACCGCCAUGGCGCGCUCCUCAACAGAGGAUUGAGCAUCA
B15: chr3:20017139:20017140:+_ENSG00000144566_ENST00000273047|hu_hu|motif|central (ssRNA)
RNA: GGGAGUUCUACAGUCCGACGAUCGAUAUCAUAUACAACUAUGGCUGCUUGUGCUCCUCUGUAGUACAUUGGUGCGGGGCGGUGGUAUCGUUCUUGACCAGCUGUAUCCCAUAUUUCAAACUUUACUGUAGUGUCAUCAAGACACAACAGAGGAUUGAGCAUCA
B16: chr4:76721835:76721836:+_ENSG00000138768_ENST00000264904|hu_mus|hu_hu_hu_mus_True|28_78 (ssRNA)
RNA: GGGAGUUCUACAGUCCGACGAUCGUUUGGCUGGGGUUUCUGAGACGCUCUGGAAUAAACUCAUGUUUUGCUAAUAAAUCCUAGUUUCUCUAUGAAAUUCUCUUUGCAAUCCUCUUCCUCUAUUAGUUGCUUUAGUUUCUCUUUCAACAGAGGAUUGAGCAUCA
B17: chr3:148802587:148802588:-_ENSG00000071794_ENST00000310053|hu_mus|hu_hu_hu_mus_False|58_98 (ssRNA)
RNA: GGGAGUUCUACAGUCCGACGAUCUCCAACAACUUGUCCUCUCAAACUUCCAAAUAAAACCAAAUCUUGCUCUUCAUCACUAGUUAGGAAGUCAUCUGGAGGAAUAAUGUCUUGGAAUUCAAAAUGUGGCAAGAAAGUUGAGUACAACAGAGGAUUGAGCAUCA
B18: 107904762_107904882_6197_3pUTR_ENSMUSG00000034636_ENSMUST00000043616|mouse|control|control (ssRNA)
RNA: GGGAGUUCUACAGUCCGACGAUCACACAGUGAGCUUGAGACCAGCUUGGGCUACAAAAGAGCCUGUCUCACAGAACAAAGUCAAACAACCAAAAACUGAGCCAAAUUUACUGUUCCUUAAUUUAUCCCAAUUUGGCACAUUAACAACAGAGGAUUGAGCAUCA
B19: chr2:109737439:109737440:+_ENSMUSG00000027162_ENSMUST00000028583|mus_mus|FALSE|FALSE (ssRNA)
RNA: GGGAGUUCUACAGUCCGACGAUCCAUUUUCUCAAAGCGGGACUCCAUUUCUUCCAAGACUUUUGGUGUGUACCGUACGACUAAUUUAACCUUCCCUUGGGCUGCUUUCAGUAGCUCUACCGCUUUCUCAUGGUGCUCCCCUUCCAACAGAGGAUUGAGCAUCA
B20: chr3:39121231:39121232:+_ENSG00000114742_ENST00000302313|hu_hu|FALSE|FALSE (ssRNA)
RNA: GGGAGUUCUACAGUCCGACGAUCAUUGGUAUCUUUGGUUAAUAUAUGUCUCUUAUCAUUAAGAAUGUGGCACUGAAUAAUACUAGCACCCCCUUUAAUAACCUGGUCAGGUUGUGUACAAAGAGGUGUUAUAGGAUUUGUACACAACAGAGGAUUGAGCAUCA
B21: chr8:95500983:95500984:-_ENSG00000164944_ENST00000437199|hu_hu|hu_hu_hu_mus_True|98_108 (ssRNA)
RNA: GGGAGUUCUACAGUCCGACGAUCAGAAGGAUUUUUAUCGUGUAAAGACCGUACAUGACGGCCUCUACCACUGCCUCCACUAACAAACUUUCCUCUCGAGCCUCCACUGCCGCUAUUUGUACUAGCCCAGGACGGUCCCAGGCCCAACAGAGGAUUGAGCAUCA
B22: chr1:26449037:26449038:+_ENSG00000175087_ENST00000374271|hu_mus|motif|central (ssRNA)
RNA: GGGAGUUCUACAGUCCGACGAUCAUGCUUGCAAGCAGUAGGUCACGUCUCCCAGCUGCUGUCUUUAAAUGCAAUUUGGACGGAUCUGAGUUCUAGUUCAAAAGCAUCAGGGCGAUCCUGAGGGUUUGCGGCCAGCAUUUCCUUCAACAGAGGAUUGAGCAUCA

The test deals with T1, UNK ZnF1-3. Kind of test: nsRBNS (natural sequence RNA bind-n-seq); RBNS binding buffer (assumed for nsRBNS): 25 mM Tris pH 7.5, 150 mM KCl, 3 mM MgCl2, 0.01% Triton X-100, 500 ug/ml BSA, 20 U/ml SUPERase-In, 4 C; UNK is unkempt and MSI1 is Musashi-1; names of the RNAs are library labels; protein concentration not given here; high values mean tight binding.
B1 had a binding signal of 1.28 enrichment R.
Consider B2, for which the binding signal came to 1.4 enrichment R.
Molecule B3 returned a binding signal of 0.717 enrichment R.
B4 returned a binding signal of 2.02 enrichment R.
Molecule B5 came in with a binding signal of 0.889 enrichment R.
In the case of B6, the binding signal is 1.14 enrichment R.
On to B7, for which the binding signal was 0.483 enrichment R.
In turn, B8 displayed a binding signal of 1.51 enrichment R.
In turn, B9 gave a binding signal of 0.665 enrichment R.
As to B10, the binding signal turned out to be 0.823 enrichment R.
B11 yielded a binding signal of 1.85 enrichment R.
B12: the binding signal amounted to 1.08 enrichment R.
For B13, the binding signal was found to be 0.573 enrichment R.
Molecule B14 yielded a binding signal of 0.525 enrichment R.
B15: the binding signal was determined as 0.882 enrichment R.
For B16, the binding signal was determined as 0.495 enrichment R.
For the molecule B17, the binding signal worked out at 1.03 enrichment R.
The molecule B18 showed a binding signal of 1.01 enrichment R.
As to B19, the binding signal was 0.63 enrichment R.
B20 had a binding signal of 0.37 enrichment R.
As for B21, the binding signal worked out at 0.979 enrichment R.
B22 gave a binding signal of 0.722 enrichment R.

Source of the values: article PMC12136788.
